Reference: publication PMC4336329 (PLoS ONE, 2015)
In all, about 310,000 compounds went through this assay and about 2,200 (0.71%) showed an effect of 50% or more. Effects have a minus sign here. Some of the results follow.

molecular target: human ether-à-go-go-related gene (hERG) potassium channel (human, UniProt Q12809); experiment: primary screen, population patch clamp on CHO cells stably expressing hERG
Sequence (Q12809 whole entry, looked up): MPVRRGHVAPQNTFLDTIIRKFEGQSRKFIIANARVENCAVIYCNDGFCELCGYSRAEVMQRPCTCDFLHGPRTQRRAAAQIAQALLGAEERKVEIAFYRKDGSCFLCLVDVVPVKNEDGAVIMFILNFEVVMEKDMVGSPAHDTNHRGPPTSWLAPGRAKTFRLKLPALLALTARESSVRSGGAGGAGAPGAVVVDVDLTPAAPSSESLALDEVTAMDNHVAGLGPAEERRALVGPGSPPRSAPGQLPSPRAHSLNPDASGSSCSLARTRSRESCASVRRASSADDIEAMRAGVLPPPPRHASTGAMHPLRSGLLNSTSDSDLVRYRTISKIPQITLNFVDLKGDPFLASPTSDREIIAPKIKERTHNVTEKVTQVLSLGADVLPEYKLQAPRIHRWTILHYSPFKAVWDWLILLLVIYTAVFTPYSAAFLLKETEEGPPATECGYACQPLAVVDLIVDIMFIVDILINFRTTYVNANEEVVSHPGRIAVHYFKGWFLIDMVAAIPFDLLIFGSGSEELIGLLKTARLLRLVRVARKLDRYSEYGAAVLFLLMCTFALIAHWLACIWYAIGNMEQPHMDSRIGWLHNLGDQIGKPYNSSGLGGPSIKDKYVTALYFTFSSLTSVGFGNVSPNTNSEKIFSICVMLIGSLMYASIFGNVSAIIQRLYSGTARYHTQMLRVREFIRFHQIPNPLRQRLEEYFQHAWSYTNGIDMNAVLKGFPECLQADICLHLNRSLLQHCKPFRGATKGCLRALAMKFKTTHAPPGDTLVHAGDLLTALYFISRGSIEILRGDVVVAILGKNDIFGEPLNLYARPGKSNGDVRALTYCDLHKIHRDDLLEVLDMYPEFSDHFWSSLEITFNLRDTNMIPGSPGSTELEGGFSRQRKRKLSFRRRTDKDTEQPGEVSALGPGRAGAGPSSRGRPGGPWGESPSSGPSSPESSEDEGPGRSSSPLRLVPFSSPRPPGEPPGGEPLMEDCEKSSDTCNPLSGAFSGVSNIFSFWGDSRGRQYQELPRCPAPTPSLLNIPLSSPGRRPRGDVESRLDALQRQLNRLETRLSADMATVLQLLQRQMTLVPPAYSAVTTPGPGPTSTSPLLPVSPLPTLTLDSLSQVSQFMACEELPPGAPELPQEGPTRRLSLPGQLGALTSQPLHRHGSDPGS

| Compound | hERG current change (%, negative = inhibition) at 1uM [%] |
| --- | --- |
| CCCCCn1nc(C)c2c(C)cc(=O)[nH]c21 | 10.4 |
| COc1cc(=O)[nH]c(SC(C)C(=O)Nc2cccc3ccccc23)n1 (centres unmarked) | 8.84 |
| CCN(CC(=O)NC(C)C)C(=O)Cc1ccc(C)c(C)c1 | 4.73 |
| CCOC(=O)Cn1c(=O)c(-c2ccccc2NC)nc2ccccc21 | 3.89 |
| CC1CC(C)CN(C(=O)CSC2=Nc3ccccc3C3=NC(Cc4c[nH]c5ccccc45)C(=O)N23)C1 (centres unmarked) | 0.365 |
| O=C(c1ccc(Cl)cc1)c1ccc(OCC(=O)N2CCOCC2)cc1 | 8.79 |
| CC1CC(CCC(=O)NC(=S)Nc2ccc(Cl)cn2)C(=O)O1 (centres unmarked) | -0.477 |
| CC(C)c1ccc(OCCCCN2CCCCC2)cc1.O=C(O)C(=O)O | 0.053 |
| O=C(COC(=O)C12CC3CC(CC(C3)C1)C2)Nc1ccc([N+](=O)[O-])cc1Cl | 11.4 |
| COC(=O)c1ccc(NC(=O)CN2CCN(S(=O)(=O)c3ccc(Br)cc3)CC2)cc1 | -12.6 |
| O=C1C(=O)N(CCN2CCOCC2)C(c2ccccc2)/C1=C(\O)c1ccc2c(c1)OCCO2 (centres unmarked) | -9.7 |
| Cc1cccc(-c2nc(Nc3cccc(O)c3)c3ccccc3n2)c1 | 14.7 |
| Cc1cc(C)nc(SCc2ccc(C(=O)NN=C3CCCC3)cc2)n1 | 14.8 |
| CCOC(=O)C1CCCN(C(=O)c2cn(C)c3ccc(S(=O)(=O)N(C)C)cc3c2=O)C1 (centres unmarked) | 2.7 |
| O=C(NC1=NCCS1)c1ccc(Cl)c(Cl)c1 | 14.1 |
| O=Cc1ccc(OCc2cn3ccccc3n2)cc1 | 4.48 |
| Cc1nc(SCC(=O)Nc2ccc3c(c2)OCO3)c(C#N)c2c1CCCC2 | 0.244 |
| CN(C)CCCNc1oc(-c2ccccc2Cl)nc1S(=O)(=O)c1ccccc1 | -7.51 |
| CCN(CC(=O)Nc1ccc(OC)cc1)C(=O)C1CCN(C(=O)c2ccc(Cl)cc2)CC1 | -0.131 |

| Compound | hERG current change (%, negative = inhibition) at 1uM [%] |
| --- | --- |
| CC(C)OC(=O)CSc1nnc2c(n1)[nH]c1ccc(F)cc12 | 4.61 |
| N#C/C(=C\c1ccc(OCCN2CCOCC2)cc1)C(=O)Nc1ccccc1F | 12.6 |
| O=C(CSc1ccc2nnc(-c3cccnc3)n2n1)NCC1CCCO1 (centres unmarked) | -2.62 |
| CCOc1ccc(S(=O)(=O)NC(=O)c2ccccc2)cc1 | 7.5 |
| CC(C)c1ccc(OCc2ccc(C(=O)NN3CCN(C)CC3)o2)cc1 | -6.94 |
| Cc1ccc(/C=C/C(=O)O)cc1S(=O)(=O)NCCCO | 9.29 |
| CCC(=O)Nc1ccc2nc(C3CC3)n(Cc3ccccc3)c(=O)c2c1 | 8.03 |
| N/C(=N/O)C(c1ccccc1)c1ccccc1 | 6.87 |
| O=C(NCc1cccnc1)c1ccc(S(=O)(=O)Nc2ccccc2)cc1 | -13.4 |
| CN(Cc1cn(C)nc1-c1ccccc1F)C1CCOC1 (centres unmarked) | 11 |
| CCOc1[nH]n(-c2ccc(Cl)cc2)c(=O)c1C=Nc1ccc(Cl)cc1 | 13 |
| O=C(Cn1nc([N+](=O)[O-])nc1Br)NC(c1ccccc1)c1ccccc1 | 8.47 |
| CCOc1ccc(/C=N/OCC(=O)Nc2cc(S(=O)(=O)N3CCOCC3)ccc2OC)cc1 | 11.7 |
| Cc1ccsc1C(=O)N(Cc1nnc(-c2ccccc2Cl)o1)C1CC1 | 4.32 |
| NC(=O)c1ccc[n+](CC(=O)c2ccc(Cl)c(Cl)c2)c1.[Br-] | 6.15 |
| CCC(C)NC(=O)c1ccccc1C(=O)NC(C)CC (centres unmarked) | 0.641 |
| NS(=O)(=O)c1ccc(CCNC(=O)CCCCCNc2nc(=S)[nH]c3ccccc23)cc1 | 12.5 |
| Cc1ccc(NC(=O)CNCc2ccc(Cl)cc2Cl)cc1S(=O)(=O)N(C)C | 5.16 |
| COc1cccc(CN2CC(C(=O)N(C)CCCC3CCCC3)CCC2=O)c1 (centres unmarked) | 8.33 |

| Compound | hERG current change (%, negative = inhibition) at 1uM [%] |
| --- | --- |
| COc1cc(S(=O)(=O)N2CCCCCC2)ccc1Cl | 9.93 |
| Cc1nc([N+](=O)[O-])cn1CC(=O)c1ccc(Cl)cc1 | 15.2 |
| Cc1ccc(C2=NN(C(=O)CCCC(=O)O)C(c3ccco3)C2)cc1 (centres unmarked) | 8.42 |
| O=C(Nc1cc(C(F)(F)F)ccc1N1CCCCC1)c1ccco1 | 15 |
| CC1(C)C(=O)C2(CCCCC2)C(=O)OC1c1cccc([N+](=O)[O-])c1 (centres unmarked) | 14.3 |
| COc1cc(C(C)=O)ccc1OCC(O)CN1CCN(c2ccccn2)CC1 (centres unmarked) | 5.4 |
| CC(=O)N(C)N1c2ccccc2CCc2ccccc21 | 18.6 |
| Cc1cc(C)c2nc(NNC(=O)c3ccc(S(=O)(=O)N4CCCCC4)cc3)sc2c1 | 8.08 |
| CCN1CCN(C(=O)c2ccc(OCC(=O)Nc3ccc(F)cc3)c(OC)c2)CC1 | -2.25 |
| O=C(Oc1cc2oc(=O)cc(-c3ccccc3)c2cc1Cl)C1CCCCC1 | 3.15 |
| CN1CCN(c2ccc(S(=O)(=O)N3CCOCC3)cc2NC(=O)CCc2ccccc2)CC1 | 1.28 |
| Cc1[nH]nc2c1C(c1ccc(N(C)C)cc1)C1=C(CC(C)(C)CC1=O)N2 (centres unmarked) | 25.2 |
| COc1ccccc1NC(=O)C1CCN(S(C)(=O)=O)CC1 | 18.2 |
| NC(=O)CN1CCN(C2CC(=O)N(CCc3ccccc3)C2=O)CC1 (centres unmarked) | 5.11 |
| Cl.Fc1cccc(CN(C2=NCCN2)c2c(Cl)cccc2Cl)c1 | 12.6 |
| Cn1cccc1C(=O)C(=O)Nc1ccc(Cl)cc1 | 11.1 |
| Cc1cccc(N2CCCC2=Nc2ccc(Br)cc2C#N)c1 | 9.09 |
| O=C(NCCOc1ccccc1)c1cccc(S(=O)(=O)NCc2ccccc2)c1 | 11.8 |
